Counter-ions that a name gives are not always drawn. The full ranking holds about 2,800 compounds; the median of “cell viability relative to vehicle” is about 1.1, and the lowest 2% start at about 0.19. Some of the results follow.

This assay concerns NCI-H2228 parental. Description: cell viability relative to vehicle (fraction of vehicle); NCI-H2228 is an ALK-positive lung cancer line and DTP means drug-tolerant persister; higher = less growth inhibition. The note with it: 100 nM; treatment time 6 days. A digest of the protocol: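 Values give cell viability as a fraction of vehicle-treated cells. Parental and drug-tolerant persister NCI-H2228 cells (persisters made with 1000 nM of a targeted drug for 13 days) were exposed in 384-well plates to the 3114-agent TargetMol anti-cancer compound library at 100 nM, with DMSO as vehicle. ATP was then read after 6 days by the CellTiter-Glo 3D Cell Viability Assay.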
Consider `COc1cc2c(cc1OC)[C@@H]1C(=O)c3ccc4c(c3O[C@@H]1CO2)C=CC(C)(C)O4` [Deguelin], for which the cell viability was found to be 0.928.
Take `S=c1[nH]cnc2nc[nH]c12` [6-Mercaptopurine monohydrate]: the cell viability was 0.405.
The same measure for `S=c1[nH]cnc2nc[nH]c12` [Mercaptopurine]: 0.873; for `NS(=O)(=O)c1ccc(NC(=O)Nc2ccc(F)cc2)cc1`: 1.06; for `CN1CCC(CNc2ccc3ncc(-c4cccc(OC(F)(F)F)c4)n3n2)CC1` [SGI-1776 free base]: 0.994.
For the molecule `Cc1nn(C)cc1-c1nc2c(N3CCN(Cc4ccc(Cl)cc4)CC3)c(Cl)cnc2[nH]1`, the cell viability stood at 0.927.
Under `C[C@H](NC(=O)CCc1nc2ccccc2c(=O)[nH]1)c1ccccc1` stands 1.03; under `NCC(=O)CCC(=O)O` [5-Aminolevulinic acid hydrochloride], 0.98; under `COc1ccc(CNc2nc(N(CCO)CCO)nc3c2ncn3C(C)C)cc1`, 1.03.
Turning to `Cc1ccc(Sc2ccccc2N2CCNCC2)c(C)c1` [Vortioxetine], the cell viability was determined as 1.15.
Under `Cc1ccc(C)c(OCCCC(C)(C)C(=O)O)c1` [Gemfibrozil] stands 1.26; under `CC1(C)CC[C@]2(C(=O)O)CC[C@]3(C)[C@H](C(=O)C=C4[C@@]5(C)C=C(C#N)C(=O)C(C)(C)[C@@H]5CC[C@]43C)[C@@H]2C1` [Bardoxolone], 1.02.
Under `O=C(O)/C=C/C(=O)O` [Fumaric acid] stands 1.24.
Regarding `COc1cc2c(cc1OC)[C@@H]1Cc3ccc(OC)c(OC)c3CN1CC2` [Rotundine], the cell viability came to 1.11.
Under `O=C(CCCN1CCC(O)(c2ccc(Cl)cc2)CC1)c1ccc(F)cc1` [Haloperidol] stands 1.19; under `CC1(C)[C@@H](O)CC[C@]2(C)[C@H]3C(=O)C=C4[C@@H]5C[C@@](C)(C(=O)O)CC[C@]5(C)CC[C@@]4(C)[C@]3(C)CC[C@@H]12` [Enoxolone], 1.15; under `CC1(C)CC(=O)c2c(C(F)(F)F)nn(-c3ccc(C(N)=O)c(N[C@H]4CC[C@H](OC(=O)CN)CC4)c3)c2C1`, 0.236.
Take `C[C@H]1COC2(CCN(c3nc(=O)c4cc(C(F)(F)F)cc([N+](=O)[O-])c4s3)CC2)O1` (racemic) [BTZ043 Racemate]: the cell viability came to 1.07.
Under `Cc1ccc(S(=O)(=O)N2CCCC2c2ccc(F)cc2)cc1` (stereo not drawn) stands 0.97; under `O=C1CN(CCN2CC(=O)N(CN3CCOCC3)C(=O)C2)CC(=O)N1CN1CCOCC1` [Bimolane], 1.11; under `O=C(NCc1cccc(O)c1)Nc1nc(-c2ccncc2)cs1`, 1.06.
The same measure for `COc1cc(C(=O)NC2CCN(C)CC2)ccc1Nc1ncc2c(n1)N(C1CCCC1)CC(F)(F)C(=O)N2C`: 0.171.
For `N#CCCCSC(=N)N` [Kevetrin hydrochloride], the cell viability turned out to be 1.
Take `COc1c(C)c2c(c(O)c1C/C=C(\C)CCC(=O)OCCN1CCOCC1)C(=O)OC2` [Mycophenolate Mofetil]: the cell viability was found to be 1.1.
For the molecule `CN1C(C(=O)Nc2ccccn2)=C(O)c2ccccc2S1(=O)=O` [Piroxicam], the cell viability turned out to be 0.952.
`CN1C(N)=N[C@](C)(c2cc(NC(=O)c3ccc(F)cn3)ccc2F)CS1(=O)=O` [Verubecestat]: the cell viability was determined as 1.12.
In the case of `NCCS` [2-Aminoethanethiol], the cell viability is 1.09.
As for `COc1ccc(CCc2nc3cc(-c4c(C)noc4C)ccc3n2C[C@H](C)N2CCOCC2)cc1Cl`, the cell viability was 1.08.
Consider `Nc1nc(=O)c2c([nH]1)NC[C@H](CNc1ccc(C(=O)N[C@@H](CCC(=O)O)C(=O)O)cc1)N2C=O` [Calcium Levofolinate], for which the cell viability worked out at 1.15.
The same measure for `CNCc1ccc(-c2[nH]c3cc(F)cc4c3c2CCNC4=O)cc1` [Rucaparib Phosphate]: 1.
With `CCNC(=O)c1noc(-c2cc(C(C)C)c(O)cc2O)c1-c1ccc(CN2CCOCC2)cc1` [Luminespib], the cell viability came out at 0.0552.
As for `Cc1cnc(-c2cnc(NCCNc3ccc(C#N)cn3)nc2-c2ccc(Cl)cc2Cl)[nH]1`, the cell viability came to 1.09.
Consider `CC(=O)OC(C)C(C)C(=O)OCC12C3CC(C)(C)[C@H](O[C@@H]1C[C@]1(C)C3=CCC3C4(C)CCC(O[C@@H]5O[C@H](C(=O)O)[C@@H](O[C@H]6O[C@H](CO)[C@@H](O)[C@H](O)[C@H]6O)[C@H](O)[C@H]5O[C@@H]5OC[C@@H](O)[C@H](O)[C@H]5O)[C@](C)(CO)C4CCC31C)C2O` (stereo partly drawn) [Sodium Aescinate], for which the cell viability was 1.1.
Turning to `COc1ccc2c(c1)C(=O)N(CCc1ccc(S(=O)(=O)NC(=O)NC3CCCCC3)cc1)C(=O)C2(C)C` [Gliquidone], the cell viability stood at 1.13.
Consider `C=CCc1ccc(O)c(-c2cc(CC=C)ccc2O)c1` [Magnolol], for which the cell viability was 1.02.
The same measure for `CN(C)CCN(Cc1ccc(Cl)cc1)c1ccccn1` [Chloropyramine hydrochloride]: 1.15; for `NS(=O)(=O)Cc1noc2ccccc12` [Zonisamide]: 0.935.
The same measure for `CC(=O)c1cc([N+](=O)[O-])c(Sc2ccc(F)cc2F)s1`: 0.963.
The same measure for `Cc1nn2c([nH]c(=O)c3cccnc32)c1C#N`: 1.07.
For the molecule `Cc1cn([C@H]2C[C@H](N=[N+]=[N-])[C@@H](CO)O2)c(=O)[nH]c1=O` [Zidovudine], the cell viability was determined as 1.24.
Take `Cc1ccc2nc(NCCN)c3ncc(C)n3c2c1`: the cell viability amounted to 1.06.
For the molecule `NCCC(O)(P(=O)(O)O)P(=O)(O)O` [Pamidronate disodium salt], the cell viability was determined as 1.08.
Under `CC(C[N+](C)(C)C)OC(N)=O` (stereo not drawn) [Bethanechol chloride] stands 1.21.
With `CCCc1nc2c(C)cc(-c3nc4ccccc4n3C)cc2n1Cc1ccc(-c2ccccc2C(=O)O)cc1` [Telmisartan], the cell viability turned out to be 1.12.
As to `CC(C)(C)C1CCc2c(sc(NC(=O)c3ccco3)c2C(=O)O)C1` (stereo not drawn), the cell viability was 1.01.
Turning to `COCCCOc1cc(C[C@@H](C[C@H](N)[C@@H](O)C[C@H](C(=O)NCC(C)(C)C(N)=O)C(C)C)C(C)C)ccc1OC` [Aliskiren hemifumarate], the cell viability was found to be 1.24.
With `CC1=CC(=O)c2ccccc2C1=O` [Menadione], the cell viability was 1.17.
Regarding `CC(=O)/N=c1/sc(S(N)(=O)=O)nn1C` [Methazolamide], the cell viability was 0.955.
As to `Cc1ccc(C(=O)N(CCCN)[C@@H](c2nc3cc(Cl)ccc3c(=O)n2Cc2ccccc2)C(C)C)cc1` [Ispinesib], the cell viability was determined as 0.28.
For `CC(=O)Oc1cc(C)c(OC(C)=O)c2ccccc12` [Menadiol Diacetate], the cell viability was determined as 1.18.
On to `COc1cc2ncnc(Nc3ccc(F)c(Cl)c3)c2cc1NC(=O)/C=C/CN1CCCCC1` [Dacomitinib], for which the cell viability was determined as 1.05.
Consider `O=c1cc(N2CCOCC2)oc2c(-c3ccc4c(c3)OCCO4)csc12`, for which the cell viability worked out at 1.14.
As to `CCCCC1C(=O)N(c2ccccc2)N(c2ccccc2)C1=O` [Phenylbutazone], the cell viability turned out to be 1.34.
With `C=C1CCC[C@]2(C)C[C@]3(O)OC(=O)C(C)=C3C[C@@H]12` [Atractylenolide III], the cell viability stood at 1.1.
The same measure for `O=C(Nc1ccc2[nH]nc(-c3ccncc3)c2c1)[C@@H]1CCN(CC(=O)N2CCN(c3ccc(-c4ncccn4)cc3)CC2)C1`: 1.06; for `C=CC(=O)Nc1cccc(Oc2nc(Nc3ccc(N4CCN(C)CC4)c(F)c3)nc3[nH]ccc23)c1` [Avitinib]: 0.935; for `CNCC[C@@H](Oc1ccccc1C)c1ccccc1` [Atomoxetine hydrochloride]: 1.12.
With `CC(C)(C)c1cc(NC(=O)Nc2ccc(Oc3ccnc4[nH]c(=O)cnc34)cc2F)n(-c2ccccc2)n1`, the cell viability was 1.15.
Under `CC(C)(O)CNc1nc(Nc2ccnc(C(F)(F)F)c2)nc(-c2cccc(C(F)(F)F)n2)n1` [Enasidenib] stands 0.984.
Turning to `Cc1c(CN2CCN(S(C)(=O)=O)CC2)sc2c(N3CCOCC3)nc(-c3cnc(N)nc3)nc12`, the cell viability was determined as 0.664.
For `CC/C=C\CC1C(=O)CCC1CC(=O)OC` (racemic) [(±)-Methyl Jasmonate], the cell viability stood at 1.13.
In the case of `CC(Cc1ccc(O)c(O)c1)C(C)Cc1ccc(O)c(O)c1` (stereo not drawn) [Nordihydroguaiaretic acid], the cell viability stood at 1.12.
For `Nc1ncc(-c2ccnc(Nc3ccncc3)n2)c(CC2CC2)n1`, the cell viability is 1.09.
As to `C[C@@H](Oc1cc(-c2cnn(C3CCNCC3)c2)cnc1N)c1c(Cl)ccc(F)c1Cl` [Crizotinib], the cell viability worked out at 0.777.
Take `N[C@@H](CCNCc1ccc(Cl)cc1)C(=O)N1CCCCC1`: the cell viability worked out at 1.14.
With `CCNC(=O)Nc1ccc(-c2nc(N3CCOC[C@@H]3C)c3c(n2)C(C)(C)S(=O)(=O)C3)cc1`, the cell viability came to 0.547.
In the case of `Cc1cc(Nc2ncc(Cl)c(Nc3ccccc3S(=O)(=O)C(C)C)n2)c(OC(C)C)cc1C1CCNCC1`, the cell viability amounted to 0.555.
Take `C/C(O)=C(\C#N)C(=O)Nc1ccc(C(F)(F)F)cc1` [Teriflunomide]: the cell viability came out at 1.14.
For `Cn1cc(/C=C/C(=O)c2cccc(F)c2)cc1/C=C/C(=O)NO`, the cell viability was 1.05.
For `Cc1nc(N(C)C(=O)Cc2ccc(-c3ccccn3)cc2)sc1S(N)(=O)=O` [Pritelivir], the cell viability stood at 0.87.
For `NS(=O)(=O)Oc1ccc2c3c(c(=O)oc2c1)CCCCC3` [Irosustat], the cell viability was found to be 1.04.
Under `O=P(O)(O)O[C@H]1[C@H](OP(=O)(O)O)[C@@H](OP(=O)(O)O)[C@H](OP(=O)(O)O)[C@@H](OP(=O)(O)O)[C@H]1OP(=O)(O)O` [Phytic acid] stands 1.19; under `COc1ccc(CCc2cc(OC)c(OC)c(OC)c2)cc1O` [Erianin], 0.335.
For the molecule `C[C@@H]1O[C@@H](O[C@H]2[C@H](Oc3cc(O)c4c(c3)O[C@H](c3ccc(O)cc3)CC4=O)O[C@H](CO)[C@@H](O)[C@@H]2O)[C@H](O)[C@H](O)[C@H]1O` [Naringin], the cell viability was found to be 0.96.
As to `Cn1cc(C2=C(c3cn(CCCSC(=N)N)c4ccccc34)C(=O)NC2=O)c2ccccc21` [Ro 31-8220 Mesylate], the cell viability came to 1.04.
As to `Nc1ccccc1NC(=O)CCCCCCC(=O)Nc1ccccc1`, the cell viability stood at 1.09.
On to `O=C(NCc1ccc2c(c1)OCO2)c1c(Cl)cccc1Cl`, for which the cell viability stood at 1.13.
The same measure for `C[C@H](CCC(=O)O)[C@H]1CC[C@H]2[C@@H]3C[C@H](O)[C@@H]4C[C@H](O)CC[C@]4(C)[C@H]3CC[C@]12C` [Hyodeoxycholic acid]: 0.994.

The values are drawn from the supplement of paper PMC10600219.
